The whole screen tested about 410,000 compounds, of which about 850 (0.21%) were called active. The inconclusive results got no clear call from the source; some entries with a clear call stand among them for comparison. The call rests on the fitted dose curve; in most records, active means well fitted inhibition curve with a large enough effect; inconclusive means small, poorly fitted or top-dose-only effect, or another doubt; inactive means no such curve, though single readings can be large or run the other way. No potency is given beside an inconclusive call; the fits are too rough.
These compounds were tested against Glutaminase kidney isoform, mitochondrial (Homo sapiens) (UniProt O94925) (assay: qHTS for Inhibitors of Glutaminase (GLS)). Settings: GLS enzymatic activity, qHTS titration; series mostly up to 45.5 µM.
UniProt O94925, sequence (O94925 whole entry, looked up, canonical isoform): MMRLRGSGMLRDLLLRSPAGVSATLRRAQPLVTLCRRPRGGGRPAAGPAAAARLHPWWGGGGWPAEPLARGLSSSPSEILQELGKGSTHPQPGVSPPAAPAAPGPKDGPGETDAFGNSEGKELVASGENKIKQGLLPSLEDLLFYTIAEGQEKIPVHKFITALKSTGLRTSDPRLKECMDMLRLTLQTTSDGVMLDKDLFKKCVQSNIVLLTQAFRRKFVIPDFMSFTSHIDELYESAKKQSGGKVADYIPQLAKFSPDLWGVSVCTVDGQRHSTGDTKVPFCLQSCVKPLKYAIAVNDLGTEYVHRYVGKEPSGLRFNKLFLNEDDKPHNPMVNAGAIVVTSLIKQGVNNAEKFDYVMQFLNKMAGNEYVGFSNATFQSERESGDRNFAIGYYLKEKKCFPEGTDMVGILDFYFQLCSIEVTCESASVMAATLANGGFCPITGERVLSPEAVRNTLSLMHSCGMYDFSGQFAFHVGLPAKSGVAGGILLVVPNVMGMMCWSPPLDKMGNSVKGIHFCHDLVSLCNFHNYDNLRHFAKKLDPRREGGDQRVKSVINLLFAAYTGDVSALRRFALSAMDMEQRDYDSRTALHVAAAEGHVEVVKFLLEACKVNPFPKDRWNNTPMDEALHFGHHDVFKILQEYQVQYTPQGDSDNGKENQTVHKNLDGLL
Outline: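 Compounds were pin-transferred onto hKGA, after which L-glutamine (1 mM solution) and a detection mix of glutamate oxidase, HRP and Amplex Red were added. Initial and 30 min RT fluorescence reads were collected.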
With `COc1cc(/C=C/c2[nH]c(=O)[nH]c(=O)c2[N+](=O)[O-])cc([N+](=O)[O-])c1O` the Potency was inconclusive [inhibitor, single point].
In the case of `N#C/C(=C\c1ccc(Sc2ccccc2)o1)c1nc2ccccc2[nH]1`, the Potency is reported as “inactive”.
For `COc1ccc(C(=O)N2CCN(c3cccc(Cl)c3)CC2)cc1`, the Potency was “inactive”.
With `OC1CCN(Cc2nc(Cc3ccccc3Cl)no2)CC1` the Potency was “inactive”.
For `CC(=O)Nc1ccc(SCC(=O)c2ccc(Br)s2)cc1`, the Potency was inconclusive [inhibitor, single point].
With `O=C(O)CN1CCc2ccccc2C1` the Potency was inconclusive [inhibitor, single point].
In the case of `Cc1ccc(CNC(=O)CCNC(=O)c2ccco2)cc1`, the Potency is reported as “inactive”.
For `COC(=O)/C=C/COc1ccccc1[N+](=O)[O-]`, the Potency was inconclusive [inhibitor, single point].
`COc1cc(/C=N/NC(=O)c2cc(-c3ccccc3)sc2N)cc(OC)c1OC` was tested, and the Potency was inconclusive [inhibitor, single point].
`O=C(O)C1Nc2c(Cl)cc(Cl)c(Cl)c2C2C=CCC12` (stereo not drawn) was tested, and the Potency was inconclusive [inhibitor, single point].
With `COc1ccc2cc3[n+](cc2c1O)CCc1cc2c(cc1-3)OCO2` the Potency was inconclusive [inhibitor, partial curve].
With `C=CCN(CC=C)C(=S)NC(=O)/C=C/c1ccccc1` the Potency was inconclusive [inhibitor, single point].
With `CC[C@H]1C=C[C@@H](C(C(=O)OC)C(=O)OC)CN1C(C)=O` the Potency was “inactive”.
`CCN1CCc2c(C#N)c(N3CCOCC3)nc(NCCO)c2C1` was tested, and the Potency was inconclusive [inhibitor, partial curve, poor fit].
With `O=C(COc1ccc(F)cc1F)NNC(=O)Nc1cccc([N+](=O)[O-])c1` the Potency was inconclusive [inhibitor, single point].
With `O=C(CC1C(=O)NCCN1CC1CCCCC1)NCc1cc(F)ccc1F` (stereo not drawn) the Potency was inconclusive [inhibitor, single point].
With `Cc1ccc(-n2c(CNc3cccc(Cl)c3)n[nH]c2=S)cc1` the Potency was inconclusive [inhibitor, partial curve].
`CCOC(=O)C1=C(N)N(c2ccccc2)C(=O)C1` was tested, and the Potency was inconclusive [inhibitor, single point].
For `Cc1nnc(SCc2ccc([N+](=O)[O-])cc2)o1`, the Potency was inconclusive [inhibitor, single point].
`CCc1c(C)sc(NC(=O)Cn2nc(C)c([N+](=O)[O-])c2C)c1C(N)=O` was tested, and the Potency was inconclusive [inhibitor, partial curve, poor fit].
For `CC(C)n1c(CSCc2ccc(Cl)cc2Cl)n[nH]c1=S`, the Potency was inconclusive [inhibitor, partial curve, poor fit].
With `CCc1ccc2nc(N3C(=O)C(O)=C(C(=O)c4ccco4)C3c3cccs3)sc2c1` (stereo not drawn) the Potency was inconclusive [inhibitor, single point].
In the case of `Cc1ccc(CCNC(=O)c2ccc(NC(=O)N3CCSc4ccccc43)cc2)cc1`, the Potency is reported as “inactive”.
`CCOC(=O)c1sc2nc(CC(=O)OC)nc(N3CCN(c4ccccn4)CC3)c2c1C` was tested, and the Potency was inconclusive [inhibitor, single point].
For `COc1ccc(S(=O)(=O)Nc2c(C(=O)O)[nH]c3ccccc23)cc1OC`, the Potency was inconclusive [inhibitor, partial curve].
With `CSc1nc(O)c(C(c2cccc([N+](=O)[O-])c2)c2c(O)nc(SC)[nH]c2=O)c(=O)[nH]1` the Potency was “inactive”.
In the case of `COCCCNC(=O)CSC1=Nc2ccccc2C2=NC(CC(=O)NCc3ccccc3)C(=O)N12` (stereo not drawn), the Potency is reported as inconclusive [inhibitor, partial curve].
With `N=C1S/C(=C\c2ccc(-c3ccccc3C(=O)O)o2)C(=O)N1c1ccc2c(c1)OCO2` the Potency was inconclusive [inhibitor, single point].
For `CC1(C)Cc2nc(-c3ccccc3)nc(NNC(=O)c3ccco3)c2CO1`, the Potency was inconclusive [inhibitor, partial curve].
In the case of `CCN(CC)c1ccc(/C=N/NC(=O)c2ccc3nc[nH]c3c2)c(O)c1`, the Potency is reported as inconclusive [inhibitor, single point].
In the case of `CCOC(=O)CN1C(=O)S/C(=C\c2ccc(-c3ccc(C(=O)O)c(Cl)c3)o2)C1=O`, the Potency is reported as inconclusive [inhibitor, single point].
For `COC(=O)CCC(=O)OC1(C)C(=O)C2=CN(Cc3ccc(OC)cc3)C(c3ccc(OC)cc3)=CC2=C(Br)C1=O` (stereo not drawn), the Potency was “inactive”.
`CC(C)(C)SC(=O)C[C@@H]1NS(=O)(=O)OC2CCCCC21` (stereo partly drawn) was tested, and the Potency was “inactive”.
`CC1=C(C(=O)N(C(C)C)C(C)C)CC(CC(=O)NC2CCCCC2)C(=O)N1CCC1=CCCCC1` (stereo not drawn) was tested, and the Potency was inconclusive [inhibitor, partial curve, poor fit].
`Cc1ccc(Cn2c(CNC(=O)c3cccc(C)c3)nc3ccccc32)cc1` was tested, and the Potency was “inactive”.
In the case of `Cc1ccc(-c2nn(-c3ccccc3)cc2C=C2C(=O)CC(C)(C)CC2=O)cc1`, the Potency is reported as inconclusive [inhibitor, single point].
With `CC(CCc1ccccc1)NC(=O)c1cc2sccc2n1C` (stereo not drawn) the Potency was inconclusive [inhibitor, single point].
In the case of `O=C(Cn1c(=O)oc2cc(S(=O)(=O)NCc3ccccc3)ccc21)NCc1ccc(Cl)cc1`, the Potency is reported as “inactive”.
For `Cc1ccc2nc(CCl)[n+]([O-])c(-c3ccccc3)c2c1`, the Potency was inconclusive [inhibitor, partial curve, poor fit].
`Cc1nc2c(ccc3nc(NC(=O)Cc4cccc5ccccc45)sc32)s1` was tested, and the Potency was “inactive”.
With `O=[N+]([O-])c1ccc(O)c(-c2nn[nH]n2)c1` the Potency was inconclusive [inhibitor, single point].
`Cc1ccc(-n2nnnc2C(Cl)(Cl)c2nnnn2-c2ccc(C)cc2)cc1` was tested, and the Potency was inconclusive [inhibitor, single point].
In the case of `O=C(O)c1cccc(NC(=O)c2ccc3c(c2)C(=O)N(Cc2ccco2)C3=O)c1`, the Potency is reported as inconclusive [inhibitor, partial curve].

Source: PubChem BioAssay AID624170 (National Center for Advancing Translational Sciences (NCATS), 2012)
Potency means the concentration at half of the fitted maximal effect; tags describe the fitted curve by direction and shape.
